In paper PMC6212790 one finds binding signal data, which are given here for 172 sequences.

The other results are listed elsewhere or left out. At the low end of the ranking the order means little.

In the experiment the target is T1, GST-Rok (full length) (UniProt O34857).
T1 sequence: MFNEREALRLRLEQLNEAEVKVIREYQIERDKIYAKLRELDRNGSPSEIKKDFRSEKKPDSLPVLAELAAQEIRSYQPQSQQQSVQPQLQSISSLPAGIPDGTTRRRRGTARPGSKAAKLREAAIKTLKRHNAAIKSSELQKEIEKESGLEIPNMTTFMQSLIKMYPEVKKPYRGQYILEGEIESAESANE
The experiment in a line: protein binding microarray.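 Also: rank score from −0.5 (least bound) to 0.5 (best bound).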 The conditions noted are these: Rok is a gene silencer of Bacillus subtilis; high values mean tight binding; most listed sequences are background and not binding sites; double strand, one strand shown.
As for CGGTAGAC, the binding signal is -0.0961 E-score. On to CTATACAC, for which the binding signal stood at 0.216 E-score. The figure for GGCCACCA is -0.174 E-score. The sequence AAGGTAGC registered a binding signal of 0.133 E-score. The figure for AGCTTACC is 0.0191 E-score; for ATCCGCGA it is 0.145 E-score; for ACACCTCG it is 0.0961 E-score. As for CTAATTTA, the figure is 0.286 E-score. On to TGAACCAA, for which the binding signal is -0.12 E-score. The figure for GGCAGTCA is -0.227 E-score.

Regarding CTCCCCCC, the binding signal is -0.418 E-score.

Regarding GGATGCCA, the binding signal is -0.177 E-score. GTTCCGTA had a binding signal of 0.198 E-score. The figure for GGCGCTAC is 0.0181 E-score; for ACCTGGTA it is 0.195 E-score.

AGAAAATG registered a binding signal of 0.18 E-score. As for ACACACCC, the figure is -0.0612 E-score; as for CCCAGTAC, 0.0342 E-score. As for AGCTTGGC, the figure is -0.211 E-score. The figure for AAAATCGA is 0.175 E-score; for CACCTCCC it is -0.312 E-score; for CAGCCGCC it is -0.326 E-score. On to ATCAGTGA, for which the binding signal was -0.142 E-score. The figure for CGGGTGAA is -0.102 E-score. In the case of AACAGATG, the binding signal came out at 0.0185 E-score. As for AGACTCAG, the figure is -0.0707 E-score; as for AAACAGTG, 0.000896 E-score. The figure for GGGAATAA is -0.0556 E-score.

ATTGTACG yielded a binding signal of 0.266 E-score. As for CGATAGCA, the figure is 0.0701 E-score. As for ATAATTAT, the figure is 0.268 E-score; as for GAACAAAA, -0.0504 E-score; as for AAAGTAAT, 0.226 E-score. As for GTGCGTTA, the figure is 0.0713 E-score.

In the case of AAAACGAC, the binding signal is -0.0861 E-score.

On to ACATCGTA, for which the binding signal came out at 0.128 E-score. As for GAAAATTA, the figure is 0.246 E-score; as for TAGCCTGA, -0.0671 E-score; as for AGGCCGTA, -0.152 E-score. As for ATCATACC, the figure is 0.175 E-score; as for AAGGAGAG, -0.225 E-score. As for CAGGGCAC, the figure is -0.171 E-score; as for GTTCTGTA, 0.247 E-score. Consider ACCGAGAC, for which the binding signal was -0.13 E-score.

In the case of GCGGTATA, the binding signal came to 0.347 E-score. On to AATTGGAC, for which the binding signal is 0.203 E-score. Consider CCTAAGAC, for which the binding signal was -0.19 E-score. Turning to CGGGGACG, the binding signal is -0.267 E-score. The figure for GAGATAGA is 0.174 E-score. As for ATTCGCCC, the figure is -0.0875 E-score; as for CGGACACA, 0.0219 E-score; as for ACGAAGAA, 0.133 E-score. As for AGTAGCGG, the figure is 0.0902 E-score; as for ATATGGGC, -0.194 E-score. With CAGCCACC, the binding signal was -0.265 E-score.

With CAATTCCA, the binding signal stood at 0.149 E-score. The figure for GAACCCGC is -0.266 E-score; for CCCAAAGA it is -0.227 E-score.

With TAAGAAAA, the binding signal amounted to 0.148 E-score. The figure for ACACCGTA is 0.0364 E-score; for ACGCTAGT it is 0.0908 E-score.

On to GATCGAGA, for which the binding signal is -0.0825 E-score. As for GGAAGCTA, the figure is 0.285 E-score; as for GACACCGC, -0.354 E-score; as for CCAAGCGG, -0.0754 E-score.

With GAGCGAAC, the binding signal was -0.155 E-score.

In turn, AATTATTA had a binding signal of 0.197 E-score. Turning to GAGAGCTA, the binding signal amounted to 0.0199 E-score. As for CTTGCTCA, the figure is -0.00949 E-score. As for GCATTCAC, the binding signal was -0.0649 E-score.

In turn, CAGTAGGG yielded a binding signal of 0.0232 E-score.

Take ATAATTCC: the binding signal was found to be 0.213 E-score.

In the case of AGATAATG, the binding signal was found to be 0.225 E-score. The figure for GTACGTGA is 0.0943 E-score; for TATGGCGA it is -0.0118 E-score. The figure for CAAGTTCC is -0.0399 E-score. As to AAGCATGA, the binding signal stood at 0.00535 E-score.

As for AGAGTGTG, the binding signal was -0.0475 E-score. As for AACCGTCC, the figure is -0.00539 E-score; as for GTAGTCAA, 0.21 E-score.

Take CGCGTTAG: the binding signal is 0.07 E-score. As for GCACATTA, the figure is 0.206 E-score; as for CCCTAAGC, -0.164 E-score; as for ACGAGTTG, 0.149 E-score. The figure for CATGTATC is 0.181 E-score. As for CGTTTGAG, the figure is 0.024 E-score; as for AGGTCTTC, -0.16 E-score. As to AGCCATCA, the binding signal was -0.0405 E-score.

For the sequence ACTCTATC, the binding signal came out at 0.058 E-score.

In the case of ACTGGCGG, the binding signal is -0.0567 E-score. As for CGAATGGC, the figure is -0.16 E-score.

For the sequence ATACGCAG, the binding signal is 0.0832 E-score. The figure for AGGCCTGC is -0.247 E-score; for TCCACACA it is 0.0753 E-score. Turning to ACGCCTAC, the binding signal is -0.0847 E-score. As to CGTTGCAG, the binding signal is 0.0152 E-score. The figure for GGCGGAGA is -0.0868 E-score; for ATAATCCA it is 0.197 E-score.

ATTGGTGA: the binding signal came to 0.0777 E-score. As for AACTCACC, the figure is -0.145 E-score; as for ACCCCCGT, -0.152 E-score. The figure for GCACTTAA is -0.0625 E-score; for AAAGACAT it is -0.0102 E-score. As for AACTTGCA, the figure is 0.156 E-score; as for GCCAGGAA, -0.112 E-score; as for AGAATATA, 0.296 E-score. Sequence TCCGTGCA showed a binding signal of 0.035 E-score.

For GCCATCGA, the binding signal was -0.0559 E-score. The figure for CATGGTTC is -0.143 E-score; for AAACGAAG it is -0.0542 E-score; for CTTTGGGA it is -0.188 E-score.

With GCTGGGAC, the binding signal was -0.239 E-score. The figure for CGGAACAA is -0.0511 E-score. As for CAAGGCTG, the figure is -0.107 E-score; as for ACCAACCC, -0.142 E-score; as for TGGCGACA, -0.153 E-score. The figure for CTTAAAAA is -0.118 E-score; for CGAGCTCC it is -0.255 E-score.

CGGGCATC: the binding signal is -0.152 E-score. The figure for ATGCTCGG is -0.128 E-score.

With AACAAACC, the binding signal was -0.256 E-score. The figure for GATCAGGA is -0.113 E-score; for GATCCGCA it is -0.245 E-score. The figure for ATCGCAAC is 0.0204 E-score; for CTATGGAG it is -0.0809 E-score; for CCTTGGAA it is -0.0553 E-score. As to AGTATACT, the binding signal amounted to 0.338 E-score. As to CGATCACC, the binding signal is -0.23 E-score. In the case of CCACCTCC, the binding signal is -0.294 E-score.

On to GAAAAGTC, for which the binding signal is -0.13 E-score. Regarding CCCAACAC, the binding signal was -0.0981 E-score. On to GGTCGACA, for which the binding signal was -0.133 E-score.

Regarding CTGACCTA, the binding signal was 0.153 E-score. The figure for AGGAGCTC is -0.0168 E-score; for CAACCCGC it is -0.0798 E-score. The figure for CCACCGAC is -0.206 E-score; for TGAAAACA it is 0.168 E-score. The figure for TCTCGAAA is 0.0858 E-score; for GATATGAA it is 0.129 E-score; for AGGCAGTC it is -0.124 E-score. Sequence GATTCTCA came in with a binding signal of 0.18 E-score. The figure for AAAGCAGG is -0.183 E-score. In turn, AGGAGAAT yielded a binding signal of 0.184 E-score. The figure for CTGGGCGC is -0.259 E-score. As for TAGACGGA, the figure is -0.348 E-score; as for AGCCCCTG, -0.31 E-score; as for CGACGATA, 0.172 E-score. The sequence AAATTGAG came in with a binding signal of 0.0835 E-score. With GATTAAAA, the binding signal is 0.0318 E-score. As for ACAACAGC, the binding signal was -0.0896 E-score.

Consider CCATCGCG, for which the binding signal is -0.000623 E-score. Turning to GTCCTTAA, the binding signal turned out to be 0.0408 E-score. The figure for CGAAAACC is -0.133 E-score; for AGCTTCTA it is 0.178 E-score. The figure for TGCCAGAA is -0.0731 E-score. The figure for AGTGCATG is 0.0224 E-score; for CTGACATC it is -0.0155 E-score. The sequence ACCAAACG gave a binding signal of 0.0234 E-score.

As to ACTGGGGG, the binding signal was -0.314 E-score. The figure for ATCTATAC is 0.207 E-score. As for ATACGGAG, the figure is 0.0487 E-score. As for GGACGAAC, the binding signal is -0.121 E-score. The figure for CTAAAATA is 0.262 E-score. The figure for CTGCCAAG is -0.0519 E-score. As for ATTAAATG, the figure is 0.0625 E-score.

As for GAGAAAGC, the binding signal was -0.0612 E-score. As for CAGACGGC, the binding signal is -0.0229 E-score. As for ACGATGAG, the figure is -0.00281 E-score. The figure for CACTACTG is -0.0214 E-score. The figure for ACCATAAA is 0.114 E-score; for GCCTTGCC it is -0.443 E-score. Turning to GACCACCC, the binding signal was -0.299 E-score.
